{"source": "PubChem BioAssay AID504832", "about": "(National Center for Advancing Translational Sciences (NCATS), 2011)", "note": "About 18,000 (5.8%) of roughly 310,000 compounds were called active. This list was built around the results that the source calls inconclusive (neither active nor inactive); the mix of calls is not that of the screen. The call rests on the fitted dose curve; in most records, active means well fitted inhibition curve with a large enough effect; inconclusive means small, poorly fitted or top-dose-only effect, or another doubt; inactive means no such curve, though single readings can be large or run the other way. No potency is given beside an inconclusive call; the fits are too rough. On the % scale 0 is the no-effect control and ±100 the full control effect; potency means the concentration at half of the fitted maximal effect; tags describe the fitted curve by direction and shape.", "data": [{"assay": "Primary qHTS for delayed death inhibitors of the malarial parasite plastid, 48 hour incubation", "conditions": "P. falciparum luciferase growth in erythrocytes; series mostly up to 28.7 µM; activity change, negative = inhibition: at the top concentration", "how_it_was_run": "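A one-generation exposure of luciferase-tagged malaria parasites in RPMI 1640/Albumax erythrocyte culture, 37 C and 5% CO2. Inhibition is inferred from decreased luminescence after adding detection reagent.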", "values": [{"smiles": "COc1ccc(-n2nc(C(=O)NCC(=O)Nc3cc(OC)c(OC)c(OC)c3)c3ccccc3c2=O)cc1Cl", "Potency": "inconclusive [inhibitor, partial curve]"}, {"smiles": "O=C(CCC1N=C2c3ccccc3N=C(SCc3cccc(Cl)c3)N2C1=O)NCc1ccco1", "note": "(configuration not stated)", "Potency": "inconclusive [inhibitor, single point]"}, {"smiles": "O=C1Cc2cc(NS(=O)(=O)c3ccc(F)cc3)cc3c2N1CCC3", "activity change, negative = inhibition": "inactive: -3.17%"}, {"smiles": "COc1ccc(CC(=O)N2CCN(S(=O)(=O)c3cc(Cl)ccc3Cl)CC2)cc1", "Potency": "inconclusive [inhibitor, single point]"}, {"smiles": "Fc1ccc(CN2C3=NCCCN3c3ccccc32)cc1", "Potency": "inconclusive [inhibitor, single point]"}, {"smiles": "C=CCOc1ccc(/C=C2\\SC(=S)N(CCC(=O)O)C2=O)cc1", "Potency": "inconclusive [inhibitor, partial curve, poor fit]"}, {"smiles": "COc1cc(C(=O)NCC2(c3ccccc3)CCCC2)cc(OC)c1OC", "Potency": "inconclusive [inhibitor, partial curve, poor fit]"}, {"smiles": "CC(=O)Oc1ccccc1C(=O)Nc1ccccc1C(=O)N1CCCCC1", "Potency": "inconclusive [inhibitor, partial curve, poor fit]"}, {"smiles": "CC(=O)N1c2ccc(S(=O)(=O)N3CCCC3C(=O)Nc3cccc(F)c3)cc2CC1C", "note": "(configuration not stated)", "Potency": "inconclusive [inhibitor, partial curve]"}, {"smiles": "COCCN1C(=O)N[C@@H](c2cccs2)C(C(=O)OC)=C1C", "activity change, negative = inhibition": "inactive: 15.9%"}, {"smiles": "Cc1cc(/C=C2\\NC(=O)N(Cc3ccc(Cl)cc3)C2=O)c(C)n1C", "Potency": "active: 9.28 µM"}, {"smiles": "CCc1ccccc1NC(=O)CN(c1ccc(OC)cc1OC)S(=O)(=O)c1ccccc1", "Potency": "inconclusive [inhibitor, partial curve]"}, {"smiles": "NNCCc1ccccc1", "Potency": "inconclusive [inhibitor, single point]"}, {"smiles": "O=C(NCCN1CCOCC1)N1CCOCC1", "activity change, negative = inhibition": "inactive: 16.7%"}, {"smiles": "COc1ccc2nc(C(F)(F)Cl)c(C#N)c(N)c2c1", "Potency": "inconclusive [inhibitor, partial curve, poor fit]"}, {"smiles": "CC(=O)C1=NN(c2ccc(Cl)cc2)C(c2ccc3c(c2)OCO3)N(C(C)=O)N1C", "note": "(configuration not stated)", "Potency": "active: 11.7 µM"}, {"smiles": "O=C(/C=C/c1ccccc1[N+](=O)[O-])Nc1ccc(S(=O)(=O)Nc2ncccn2)cc1", "Potency": "inconclusive [inhibitor, single point]"}, {"smiles": "CCS(=O)(=O)c1ccc(-c2cccc(NC(=O)c3ccco3)c2)nn1", "Potency": "inconclusive [inhibitor, single point]"}, {"smiles": "COc1nc(C)nc2c1sc(=S)n2C", "Potency": "inconclusive [inhibitor, partial curve, poor fit]"}, {"smiles": "CN(c1ccccc1C(=O)NC1CC2CCC1C2)S(=O)(=O)c1ccccc1", "note": "(configuration not stated)", "Potency": "inconclusive [inhibitor, partial curve]"}, {"smiles": "CN(CC(=O)Nc1ccc(Cl)c(C(F)(F)F)c1)C(=O)/C=C/c1cccs1", "Potency": "inconclusive [inhibitor, single point]"}, {"smiles": "CCOC(=O)C1CCCN(C(=O)c2ccc(Cl)c(S(=O)(=O)N3CCCCCC3)c2)C1", "note": "(configuration not stated)", "Potency": "inconclusive [inhibitor, partial curve, poor fit]"}, {"smiles": "O=C(Nc1nccs1)C1CCN(S(=O)(=O)c2ccc3c(c2)OCCCO3)CC1", "Potency": "inconclusive [inhibitor, single point]"}, {"smiles": "N#Cc1cccnc1N1CCN(C(=O)c2cccc3c2C(=O)c2ccc(Cl)cc2S3(=O)=O)CC1", "Potency": "inconclusive [inhibitor, single point]"}, {"smiles": "CN1CCN(CC(=O)N2CCn3c4c(c5cc(C6CCCCC6)ccc53)CCCC42)CC1", "note": "(configuration not stated)", "Potency": "active: 7.38 µM"}, {"smiles": "N#C/C(=C\\c1cccnc1)c1ccc(Br)cc1", "Potency": "inconclusive [inhibitor, single point]"}, {"smiles": "CCC(=O)c1ccc(OCC(O)CN(CCc2ccccc2)Cc2ccccc2)cc1", "note": "(configuration not stated)", "Potency": "inconclusive [inhibitor, partial curve, poor fit]"}, {"smiles": "COc1cccc(OC)c1C(=O)Nc1c(C(=O)N2CCN(c3ccccn3)CC2)oc2ccccc12", "Potency": "inconclusive [inhibitor, partial curve]"}, {"smiles": "Cc1ccc(C(C)C)c(OCC(=O)NNC2=CC(=O)CC(C)(C)C2)c1", "Potency": "inconclusive [inhibitor, single point]"}, {"smiles": "COc1cc(C(=O)Nc2nc3ccc(S(=O)(=O)N4CCOCC4)cc3s2)cc(OC)c1OC", "Potency": "inconclusive [inhibitor, partial curve]"}, {"smiles": "O=C(Nc1ccccc1)C1=C[C@H](c2ccc3c(c2)OCO3)C[C@H](OCc2ccc(CO)cc2)O1", "Potency": "inconclusive [inhibitor, single point]"}, {"smiles": "Cc1cccc(C)c1NC(=O)CN(C)CC(=O)Nc1ccccc1Oc1ccccc1", "Potency": "inconclusive [inhibitor, partial curve, poor fit]"}, {"smiles": "Cc1[nH]n(-c2ccccc2)c(=O)c1CCOC(=O)c1cccc(C(F)(F)F)c1", "Potency": "inconclusive [inhibitor, partial curve]"}, {"smiles": "Cc1cccc(-c2nnc(SCc3nc4ccccc4[nH]3)n2Cc2ccco2)c1", "Potency": "inconclusive [inhibitor, single point]"}, {"smiles": "COC(C(=O)C(O)C(C)O)C1Cc2cc3cc(OC4CC(OC5CC(O)C(OC)C(C)O5)C(OC(C)=O)C(C)O4)c(C)c(O)c3c(O)c2C(=O)C1OC1CC(OC2CC(OC3CC(C)(O)C(OC(C)=O)C(C)O3)C(O)C(C)O2)C(O)C(C)O1", "note": "(configuration not stated)", "Potency": "active: 0.12 µM"}, {"smiles": "CC1CCCC1/C(=N/O)c1ccccc1", "note": "(configuration not stated)", "activity change, negative = inhibition": "inactive: 21.4%"}, {"smiles": "CCCn1c(C)nc2cc(Cl)c(N3CCN(c4nc(-c5ccc(C)cc5)cs4)CC3)cc21", "Potency": "active: 8.28 µM"}, {"smiles": "CCOC(=O)CN(C)C(=O)CCc1nnc(-c2ccc(-c3ccccc3)cc2)o1", "Potency": "inconclusive [inhibitor, full curve, poor fit]"}, {"smiles": "CCOC(=O)c1c(NC(=O)CSc2nc3ccccc3[nH]2)sc2c1CC(C)(C)NC2(C)C", "Potency": "active: 10.4 µM"}, {"smiles": "CC(C)n1c(=S)[nH]c2ccccc2c1=O", "Potency": "inconclusive [inhibitor, full curve]"}, {"smiles": "C[C@@H](NC(=O)c1nc[nH]c1C(=O)NC1CCN(C(=O)OC(C)(C)C)CC1)c1ccccc1", "Potency": "inconclusive [inhibitor, single point]"}, {"smiles": "CCC(C(=O)NC1CCCC1)N(C(=O)Cn1nnc(-c2ccc(C)o2)n1)c1ccccc1OC", "note": "(configuration not stated)", "Potency": "inconclusive [inhibitor, partial curve, poor fit]"}, {"smiles": "CCN1CCN(S(=O)(=O)c2ccc(Cl)c(C(=O)Nc3ccccc3N3CCCC3)c2)CC1", "Potency": "inconclusive [inhibitor, partial curve, poor fit]"}, {"smiles": "O=C(C1CCCCC1)N(CCN1CCCC1)c1nc2ccccc2s1", "activity change, negative = inhibition": "inactive: 47.5%"}, {"smiles": "CCO[C@H]1OC(C(=O)N2CCN(Cc3ccc4c(c3)OCO4)CC2)=C[C@@H](C2CC2)[C@@H]1CCCO", "Potency": "inconclusive [inhibitor, single point]"}, {"smiles": "Cc1nc(C)c(C(=O)Nc2cccc(F)c2)s1", "activity change, negative = inhibition": "inactive: 44.3%"}, {"smiles": "O=C(O)c1cccc(NC(=O)c2ccc(N3C(=O)c4ccc(C(=O)Nc5cccc(C(=O)O)c5)cc4C3=O)cc2)c1", "activity change, negative = inhibition": "inactive: 26.4%"}, {"smiles": "CN(c1ccccc1)S(=O)(=O)c1cccc(C(=O)NC2CCCCC2)c1", "Potency": "inconclusive [inhibitor, single point]"}, {"smiles": "CCN1CCN(C(=O)C2CCCN(c3ncnc4c3nc3n4CCCCC3)C2)CC1", "note": "(configuration not stated)", "Potency": "inconclusive [inhibitor, single point]"}, {"smiles": "CN1C2C=C3C(C#N)=C(N)C(C#N)(C#N)C(c4ccc(Br)cc4)C3C1CC2", "note": "(configuration not stated)", "Potency": "active: 9.28 µM"}, {"smiles": "O=C(Nc1ccc(F)cc1)C(Sc1nc2ccccc2[nH]1)c1ccccc1", "note": "(configuration not stated)", "Potency": "inconclusive [inhibitor, single point]"}, {"smiles": "COc1cc(/C=C\\C(=O)Nc2cc(=O)n(C)c(=O)n2C)cc(OC)c1OC", "Potency": "active: 5.22 µM"}, {"smiles": "CCN(CC)S(=O)(=O)c1cc(NC(=O)CSc2nc3c(cc2C#N)C(=O)CC(C)(C)C3)ccc1C", "Potency": "active: 3.7 µM"}, {"smiles": "C=CCn1c(NC(=O)c2ccccc2Cl)c(C#N)c2nc3ccccc3nc21", "Potency": "inconclusive [inhibitor, single point]"}, {"smiles": "O=C1/C(=C\\c2ccncc2)N2CCC1CC2", "activity change, negative = inhibition": "inactive: -0.262%"}, {"smiles": "CCCCN(CC)C(=O)CSc1nc2c(sc(=S)n2-c2ccc(OCC)cc2)c(=O)[nH]1", "Potency": "inconclusive [inhibitor, single point]"}, {"smiles": "CCc1ccc(NC(=O)C2CCN(S(=O)(=O)c3cccs3)CC2)cc1", "Potency": "inconclusive [inhibitor, partial curve, poor fit]"}, {"smiles": "COc1ccc(C(C(=O)NCC2CCCO2)N(Cc2cccs2)C(=O)c2snc(C(N)=O)c2N)cc1OC", "note": "(configuration not stated)", "Potency": "inconclusive [inhibitor, single point]"}, {"smiles": "C[C@@]12C(=O)Nc3cc(F)ccc3C(=O)N1[C@H]1c3ccccc3OC[C@@H]1[C@@H]2c1ccccc1", "Potency": "inconclusive [inhibitor, single point]"}, {"smiles": "Clc1nnc(NN=C2CCCC2)c2ccccc12", "activity change, negative = inhibition": "inactive: 35.1%"}, {"smiles": "N/C(=N\\OC(=O)Cc1ccc(-c2ccccc2)cc1)c1cccc([N+](=O)[O-])c1", "activity change, negative = inhibition": "inactive: 30.8%"}, {"smiles": "Cc1cc(NC(=O)CSc2nc(-c3cccs3)cc(C(F)(F)F)n2)no1", "Potency": "inconclusive [inhibitor, partial curve, poor fit]"}]}]}
